The results in this text go back to publication PMC6451091.

The list shows a part of the results. For some assays here: At the low end of the ranking the order means little. For some assays here: Measured with an extract: partners may take part in the binding.

The first assay concerns the target PU.1 (IVT) (UniProt P17947). The experiment in a line: protein-binding microarray (PBM). The conditions noted are these: 20 mM HEPES pH 7.9, 100 mM NaCl, 1 mM DTT, 0.2 mg/mL BSA, 0.02% Triton X-100, 2% milk, 0.4 mg/mL salmon testes DNA; 1 h; temperature not stated; high values mean tight binding; double strand, one strand shown; sequences stand for … in GCCTAGCAC…GTGCTAGGTCTTGATTCGCTTGACGCTGCTG
With GATAAGAGGAAGCCCTCTGT, the binding signal was 2.68 z-score.

In turn, AGAAGAAGGAAGTGGGATTT displayed a binding signal of 4.89 z-score.

For CCAAGGAGGAAGTGAGGCCT, the binding signal worked out at 4.24 z-score.

On to AGGAAGAGGAAGTGCTGGGG, for which the binding signal came to 6.11 z-score.

For the sequence GGTATGAGGAACTGGATTCC, the binding signal was 4.19 z-score.

GAAAACACGAAGTCCCATAG: the binding signal came to 0.299 z-score.

The sequence TGAATGAGGAACTGCGTTTC registered a binding signal of 4.84 z-score.

AAATGGAGGAAGTGGCTATA registered a binding signal of 4.08 z-score.

For the sequence AGAAAGAGGAAGTCTCTGCC, the binding signal turned out to be 7.37 z-score.

AAGAAGAGGAAGAGGCGTGA: the binding signal was determined as 2.66 z-score.

Sequence CAAATGACGAACTGATGCGG yielded a binding signal of 0.0688 z-score.

As for TAAATGAGGAAGTGTGCTGT, the binding signal came out at 7.74 z-score.

Turning to AAAAAGGGGAAGTTGGGGAT, the binding signal was determined as 8.45 z-score.

CCCAAAAGGAAGTGAAGTTG came in with a binding signal of 2.76 z-score.

Take TGAAAGAGGAAATGCAACCA: the binding signal came out at 4.2 z-score.

ACTTAAAGGAAGTGGGAAAA: the binding signal is 2.63 z-score.

As for TAGGAGAGGAAGTGAGAGAA, the binding signal is 4.16 z-score.

For GAAAACAGAAAGTCCCATAG, the binding signal was -0.173 z-score.

AGAAAGAGGAAGTCGAGGTG returned a binding signal of 7.74 z-score.

The sequence AGAATGAGGAAGTGGCATTT gave a binding signal of 8.08 z-score.

For the sequence TGGAAGAGGAAGTGCAACCA, the binding signal amounted to 5.9 z-score.

For CGGAGGAGGAAGTGTCTGTT, the binding signal was found to be 4.94 z-score.

GGTAAGAGGAAGTCCTTGTC registered a binding signal of 5.37 z-score.

The sequence TTATGAAGGAAGTGAAATTG yielded a binding signal of 2.45 z-score.

For CAAGGAAGGAAGTGGACCAG, the binding signal is 1.61 z-score.

Sequence ACAAAAAGGTACTGTGCCCC came in with a binding signal of 0.32 z-score.

On to GAAAAAGGGAAGTGACATCA, for which the binding signal is 6.82 z-score.

In turn, TGAAAGAGGAAGAGCAACCA yielded a binding signal of 3.55 z-score.

In turn, ACAAAAAGAAACTGTGCCCC came in with a binding signal of -0.593 z-score.

Sequence AGAATGAGGAAGTCTCTTCT showed a binding signal of 7.18 z-score.

For TCAGTGAGGAAGTGAGATAA, the binding signal was found to be 3.62 z-score.

For TTAAAGGGGAAGTGTTTGTT, the binding signal was determined as 6.14 z-score.

Regarding GGATAGAGGAAGTCCCCTGT, the binding signal worked out at 5.67 z-score.

TTTTTGAGGAACTGCCAAAT came in with a binding signal of 4.28 z-score.

CAAAAAGGGGAGTGGATGCT came in with a binding signal of -0.32 z-score.

Sequence CCTAAGAGGAAGTGGAAAGC gave a binding signal of 5.22 z-score.

With TGAAAGAGGAAGCGCAACCA, the binding signal came to 4.68 z-score.

For GATAAGAGGAAGTCCGCTGT, the binding signal turned out to be 5.74 z-score.

AGGAAGGGGAAGTGGAAGAG showed a binding signal of 5.81 z-score.

On to GGAAAGAGGAACTGACAACA, for which the binding signal turned out to be 6.19 z-score.

The next assay has as its target PU.1 (endogenous, THP-1 nuclear extract) (UniProt P17947). The experiment in a line: nuclear extract protein-binding microarray (nextPBM). The note with it: 20 mM HEPES pH 7.9, 100 mM NaCl, 1 mM DTT, 0.2 mg/mL BSA, 0.02% Triton X-100, 2% milk, 0.4 mg/mL salmon testes DNA; 1 h; temperature not stated; high values mean tight binding; double strand, one strand shown; sequences stand for … in GCCTAGCAC…GTGCTAGGTCTTGATTCGCTTGACGCTGCTG
As to GATAAGAGGAAGCCCTCTGT, the binding signal was 3.14 z-score.

AGAAGAAGGAAGTGGGATTT: the binding signal came out at 4.83 z-score.

CCAAGGAGGAAGTGAGGCCT displayed a binding signal of 5.39 z-score.

On to AGGAAGAGGAAGTGCTGGGG, for which the binding signal turned out to be 6.55 z-score.

For GGTATGAGGAACTGGATTCC, the binding signal was determined as 4.17 z-score.

GAAAACACGAAGTCCCATAG gave a binding signal of 0.815 z-score.

With TGAATGAGGAACTGCGTTTC, the binding signal worked out at 5.28 z-score.

AAATGGAGGAAGTGGCTATA came in with a binding signal of 4.29 z-score.

As for AGAAAGAGGAAGTCTCTGCC, the binding signal was 7.16 z-score.

Turning to AAGAAGAGGAAGAGGCGTGA, the binding signal stood at 2.9 z-score.

CAAATGACGAACTGATGCGG registered a binding signal of 0.263 z-score.

In turn, TAAATGAGGAAGTGTGCTGT displayed a binding signal of 7.25 z-score.

Regarding AAAAAGGGGAAGTTGGGGAT, the binding signal came out at 7.45 z-score.

CCCAAAAGGAAGTGAAGTTG showed a binding signal of 2.33 z-score.

TGAAAGAGGAAATGCAACCA had a binding signal of 4.23 z-score.

ACTTAAAGGAAGTGGGAAAA: the binding signal was 2.31 z-score.

TAGGAGAGGAAGTGAGAGAA had a binding signal of 4.16 z-score.

Sequence GAAAACAGAAAGTCCCATAG came in with a binding signal of -0.393 z-score.

For AGAAAGAGGAAGTCGAGGTG, the binding signal stood at 7.26 z-score.

Sequence AGAATGAGGAAGTGGCATTT registered a binding signal of 7.49 z-score.

Take TGGAAGAGGAAGTGCAACCA: the binding signal is 6.57 z-score.

As for CGGAGGAGGAAGTGTCTGTT, the binding signal is 4.71 z-score.

The sequence GGTAAGAGGAAGTCCTTGTC returned a binding signal of 6.2 z-score.

The sequence TTATGAAGGAAGTGAAATTG registered a binding signal of 2.65 z-score.

As for CAAGGAAGGAAGTGGACCAG, the binding signal stood at 2.2 z-score.

For the sequence ACAAAAAGGTACTGTGCCCC, the binding signal amounted to 0.164 z-score.

Regarding GAAAAAGGGAAGTGACATCA, the binding signal was determined as 7.09 z-score.

As to TGAAAGAGGAAGAGCAACCA, the binding signal was found to be 4.11 z-score.

The sequence ACAAAAAGAAACTGTGCCCC showed a binding signal of -0.484 z-score.

Take AGAATGAGGAAGTCTCTTCT: the binding signal was 7.09 z-score.

In the case of TCAGTGAGGAAGTGAGATAA, the binding signal turned out to be 3.64 z-score.

In turn, TTAAAGGGGAAGTGTTTGTT returned a binding signal of 6.44 z-score.

GGATAGAGGAAGTCCCCTGT showed a binding signal of 6.16 z-score.

Turning to TTTTTGAGGAACTGCCAAAT, the binding signal worked out at 4.43 z-score.

In turn, CAAAAAGGGGAGTGGATGCT yielded a binding signal of -0.239 z-score.

On to CCTAAGAGGAAGTGGAAAGC, for which the binding signal was determined as 6.09 z-score.

In the case of TGAAAGAGGAAGCGCAACCA, the binding signal came to 5.73 z-score.

GATAAGAGGAAGTCCGCTGT registered a binding signal of 6.39 z-score.

As to AGGAAGGGGAAGTGGAAGAG, the binding signal came out at 6 z-score.

In turn, GGAAAGAGGAACTGACAACA yielded a binding signal of 6.51 z-score.
